Assay results from PubChem BioAssay AID1508642 (National Center for Advancing Translational Sciences (NCATS), 2021).
Screen size: about 43,000 compounds; about 200 (0.47%) were called active. About 12% were inconclusive and are not listed. Calls follow the shape of the dose curve; as a rule, active = well fitted cell-killing curve with a large enough effect; inconclusive = small, poorly fitted or top-dose-only effect, or effect the other way; inactive = flat fitted curve, though single readings scatter. Some of the results follow.

Assay: Cell viability qHTS assay in S16 Pmp22-F2sN cells; also: nearly all actives have a fitted effect of over 65% in size
Conditions: S16 Pmp22-F2sN Schwann cells (luciferase reporters placed in the Pmp22 gene) viability, CellTiter-Glo, 24 h; series mostly up to 57.5 µM; activity change, negative = cytotoxicity: at the top concentration
How it was run: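 Luminescence from CellTiter-Glo, read by CCD camera after a 15 min room-temperature incubation, served as the viability signal. Reporter Schwann cells (S16 Pmp22-F2sN) had been treated with pin-transferred compounds for 24 h at 37C.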
% is scaled to controls: 0 for no effect and ±100 for the full control effect.

| Compound | activity change, negative = cytotoxicity |
| --- | --- |
| CCn1cc(S(=O)(=O)c2ccccc2)c(=O)c2cc(F)c(N3CCCC3)cc21 | inactive: -20% |
| Cc1cc(C)cc(NS(=O)(=O)c2ccc3[nH]cc(C(=O)NC4CCCCC4)c(=O)c3c2)c1 | inactive: -29.7% |
| COCCCNC(=O)c1ccc(-n2c(-c3ccccc3)cc3c2CCCC3)cc1 | inactive: 2.06% |
| COc1cccc(-c2nnc(SCC(=O)N3CCC(C)CC3)o2)c1 | inactive: 1.82% |
| O=C(OCc1cc(=O)n2nc(C3CCCCC3)sc2n1)c1ccccc1Cl | inactive: 10.8% |
| Cc1ccc(NC(=O)CCCn2c(=O)c3cccn3c3ccccc32)cc1C | inactive: 19.4% |
| CC(C)CC(=O)n1nc(-c2cccnc2)nc1NCc1ccc(F)cc1 | inactive: -0.616% |
| COc1ccc(OCC(=O)OCc2cc(=O)n3nc(-c4cccs4)sc3n2)cc1 | inactive: 16% |
| Cc1cc(C)n(-c2nc3ccccc3nc2Nc2ccc(Cl)c(C(=O)OC(C)C)c2)n1 | inactive: 8.88% |
| CC(=O)c1cccc(NC(=O)C2CCCN(C(=O)c3cnn(-c4ccccc4)c3-n3cccc3)C2)c1 (stereo not drawn) | inactive: -27.8% |
| Cc1cccc(N2CCN(S(=O)(=O)c3cc(Cl)ccc3Cl)CC2)c1C | inactive: 20.1% |
| Cn1c2ccccc2c2cnn(CC(=O)N3CCN(c4cccc(C(F)(F)F)c4)CC3)c(=O)c21 | inactive: 21% |
| CCC(CC)C(=O)Nc1ccc2nc(SCC(=O)N3CCc4ccccc43)sc2c1 | inactive: 2.3% |
| CCCCNc1ccc(-c2nc(-c3ccco3)no2)cc1[N+](=O)[O-] | inactive: -3.48% |
| CC1=C(C(N)=O)C(c2ccc(F)cc2)n2nc(-c3ccccc3Cl)nc2N1 (stereo not drawn) | inactive: 11.8% |
| COc1ccc(CC(=O)NCc2ccc3c(c2)CCN3C(C)=O)cc1 | inactive: 4.05% |
| COc1ccc(-c2nc(SCC(=O)Nc3ccc4c(c3)OCCO4)c(-c3ccc(F)cc3)[nH]2)cc1OC | inactive: 0.844% |
| O=C(c1ccc2c(c1)N(Cc1ccc(F)cc1)C(=O)c1ccccc1S2(=O)=O)N1CCN(Cc2ccccc2)CC1 | inactive: 10.9% |
| Cc1ccc2oc3c(c(=O)c2c1)C(c1ccc([N+](=O)[O-])cc1)N(CCCN1CCOCC1)C3=O (stereo not drawn) | inactive: 11.5% |
| C=CCc1ccccc1OCc1nc2ccccc2n1CC | inactive: 4.44% |
| CCOC(=O)C1CCN(C(=O)Cn2ncc3c4ccccc4n(Cc4ccc(F)cc4)c3c2=O)CC1 | inactive: -3.73% |
| COc1ccc(S(=O)(=O)c2c(O)c3ccc(C(=O)NCc4ccc(Cl)cc4)cc3[nH]c2=O)cc1 | inactive: 2.79% |
| Cc1csc2nc(COc3ccc(NC(=O)COc4ccccc4)cc3)cc(=O)n12 | inactive: -1.02% |
| Cc1cc(NC(=O)CSc2ncc(C(=O)Nc3ccc(Cl)cc3)c(=O)n2C)no1 | inactive: 5.05% |

| Compound | activity change, negative = cytotoxicity |
| --- | --- |
| O=C(CN1C(=O)c2cccnc2Oc2ccc(Cl)cc21)NCCc1ccccc1 | inactive: -0.0924% |
| Cc1ccc(NC(=O)CN2C(=O)COc3ccc(S(=O)(=O)NC4CCCC4)cc32)cc1Cl | inactive: -0.445% |
| CC(C)(C)C(=O)Cn1c(=O)n(-c2ccccc2)c(=O)c2c3c(sc21)CCC3 | inactive: 14.1% |
| Cc1cc(C)c2c(=O)cc(C(=O)Nc3c(C)n(C)n(-c4ccccc4)c3=O)oc2c1 | inactive: -3.32% |
| CCOc1ccc(-c2cc3c(=O)n(CC(=O)Nc4cc(F)ccc4C)ccn3n2)cc1 | inactive: 3% |
| COc1ccc(C(=O)c2c(N)c(-c3nc(-c4ccc(OC)cc4)cs3)c3ccccn23)cc1 | inactive: 18.8% |
| Cc1cc(C)c(/C=C/c2onc(C)c2S(=O)(=O)N2CCC(C(=O)NCc3ccccc3Cl)CC2)c(C)c1 | inactive: 0.594% |
| COc1cc2[nH]c(=O)n(CCC(=O)N3CCN(c4ccc(Cl)cc4)CC3)c(=O)c2cc1OC | inactive: 0.155% |
| CCn1nc(-c2ccccc2)c(-c2ccccc2)c(C(=O)Nc2ccccc2C#N)c1=O | inactive: -0.618% |
| Cc1cccc(NC(=O)CSc2nc3ccccc3nc2N2CCCCC2)c1C | inactive: -27.2% |
| COc1cc(NC(=O)C(Cc2ccccc2)NS(=O)(=O)c2cccc3nsnc23)cc(OC)c1 (stereo not drawn) | inactive: -6.9% |
| CCOc1ccc(N(CC(=O)Nc2ccccc2CC)S(=O)(=O)c2c(C)noc2C)cc1 | inactive: 15.1% |
| Cc1ccc(Cl)cc1NC(=O)C1CCN(S(=O)(=O)c2cccc3nonc23)CC1 | inactive: 12.4% |
| COc1cccc(Cn2c(=O)n(CCc3ccccc3)c(=O)c3c2c2cc(OC)ccc2n3C)c1 | inactive: -0.964% |
| COc1ccc(C(=O)NNc2ncnc3c2cnn3-c2ccc(C)c(Cl)c2)cc1 | inactive: -16.5% |
| CC(=O)c1cccc(NC(=O)CCc2c(C)nc3c(c(C)nn3-c3ccccc3)c2C)c1 | inactive: -0.319% |
| Cc1cc(C)cc(NC(=O)c2cc(S(=O)(=O)N3CCC(C)CC3)cn2C)c1 | inactive: 6.01% |
| CCCCNc1nc(Oc2ccc(=O)n(C)n2)nc(N2CCOCC2)n1 | inactive: 5.81% |
| COc1ccc(Br)cc1CNC(=O)c1ccc2c(c1)nc1n2CCC(C)C1 (stereo not drawn) | inactive: 11% |
| O=C(Cn1ccn(-c2ccc(F)c(F)c2)c(=O)c1=O)NCCc1ccccc1 | inactive: 4.8% |
| CN1CCN(C(=O)c2ccc3c(c2)N(Cc2ccc(Cl)cc2)C(=O)c2ccccc2S3(=O)=O)CC1 | inactive: 22.1% |
| O=C(c1ccccc1Br)N(Cc1ccccc1F)C1CCS(=O)(=O)C1 (stereo not drawn) | inactive: 1.39% |
| CCC(C)NC(=O)CSCc1nc(-c2ccc(C)cc2)oc1C (stereo not drawn) | inactive: -3.07% |
| Cc1cccc(CC(=O)NCCc2sc3nc(-c4ccc(F)cc4)nn3c2C)c1 | inactive: -18.4% |
